Reference: PubChem BioAssay AID588342 (National Center for Advancing Translational Sciences (NCATS), 2011)
Among all 360,000 compounds or so, about 25,000 (6.9%) were called active. The inconclusive results got no clear call from the source; some entries with a clear call stand among them for comparison. The call rests on the fitted dose curve; in most records, active means well fitted inhibition curve with a large enough effect; inconclusive means small, poorly fitted or top-dose-only effect; inactive means flat fitted curve, though single readings scatter. Potencies of inconclusive entries are doubtful fits and often do not repeat.

target: Luciferin 4-monooxygenase (Photinus pyralis) (UniProt P08659); assay: qHTS profiling assay for firefly luciferase inhibitor/activator using purifed enzyme and Km concentrations of substrates (counterscreen for miR-21 project); conditions: purified FLuc, luminescence inhibition; activity change, negative = inhibition: at 57.5 µM (top of the series); further: nearly all actives have a fitted effect of over 55% in size;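 on activity change, negative = inhibition: plate controls were vehicle for no effect and reference inhibitor for full effect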
Sequence of UniProt P08659 (P08659 whole entry, looked up): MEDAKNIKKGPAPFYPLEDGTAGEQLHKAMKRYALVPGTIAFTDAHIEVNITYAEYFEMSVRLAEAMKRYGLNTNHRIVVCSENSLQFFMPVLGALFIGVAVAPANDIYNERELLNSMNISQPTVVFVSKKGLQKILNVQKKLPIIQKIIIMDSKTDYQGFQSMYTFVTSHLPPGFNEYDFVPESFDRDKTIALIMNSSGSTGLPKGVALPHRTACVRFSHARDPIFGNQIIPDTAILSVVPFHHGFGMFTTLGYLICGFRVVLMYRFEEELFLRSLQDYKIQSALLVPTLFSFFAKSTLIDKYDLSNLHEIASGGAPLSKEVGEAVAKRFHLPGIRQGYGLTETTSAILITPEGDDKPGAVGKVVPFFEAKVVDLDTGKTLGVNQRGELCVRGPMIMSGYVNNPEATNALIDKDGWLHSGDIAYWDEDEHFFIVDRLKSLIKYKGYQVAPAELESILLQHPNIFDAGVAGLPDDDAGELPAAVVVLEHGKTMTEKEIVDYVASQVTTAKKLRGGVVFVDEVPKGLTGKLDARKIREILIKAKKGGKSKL
Method in brief: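 Purified P. pyralis luciferase (10nM final) with 10uM D-luciferin and 10uM ATP (Km levels) in 50mM Tris acetate pH 7.5, 10mM Mg acetate, 0.01% Tween-20, 0.05% BSA; qHTS 6-point titration, ~60 µM downward; luminescence read.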
Potency means the concentration at half of the fitted maximal effect; tags describe the fitted curve by direction and shape.

SMILES | Potency | activity change, negative = inhibition
c1ccc(-c2cc3ncccc3cn2)cc1 | inconclusive: 37.9 µM [inhibitor, single point] | –
O=C(Nc1ccccc1)C1=C[C@H](c2ccc3c(c2)OCO3)C[C@H](OCc2ccc(CO)cc2)O1 | inconclusive: 30.1 µM [inhibitor, single point] | –
N#C/C(=C\c1cccnc1)c1ccc(Br)cc1 | inconclusive: 23.9 µM [inhibitor, single point] | –
NNCCc1ccccc1 | inconclusive: 23.9 µM [inhibitor, partial curve] | –
CN(C)c1ccc(NC(=O)/C=C/c2c(Cl)cccc2Cl)cc1 | active: 8.49 µM | –
COc1cc(C(=O)NCC2(c3ccccc3)CCCC2)cc(OC)c1OC | – | inactive: 3.64%
O=C(NCc1cccs1)C1CC(c2ccccc2O)=NO1 (stereo not given) | inconclusive: 37.9 µM [inhibitor, partial curve, poor fit] | –
CC1CC(=O)N(c2ccc(N(C)Cc3ccccc3)c([N+](=O)[O-])c2)C1=O (stereo not given) | inconclusive: 30.1 µM [inhibitor, partial curve, poor fit] | –
CCc1ccc(-c2nc3cc(NC(=O)c4ccc(F)cc4)ccc3o2)cc1 | – | inactive: -1.93%
Cc1ccc(CNC(=O)CCN2C(=O)C(C)Oc3ccc(C)cc32)cc1 (stereo not given) | – | inactive: -7.42%
COc1ccc(CCN2CC(C(=O)NCc3cccc4[nH]ccc34)CCC2=O)cc1 (stereo not given) | – | inactive: -0.968%
CCOc1ccc(-n2nc(CO)c(C(=O)NCc3cccnc3)n2)cc1 | inconclusive: 21.3 µM [inhibitor, partial curve] | –
Cc1cccn2c(=O)c(C(=O)NCc3ccccc3Cl)c(O)nc12 | – | inactive: -2.68%
CC(C)S(=O)(=O)c1oc(-c2ccc(F)cc2)nc1S(=O)(=O)c1ccccc1 | – | inactive: 2.84%
CN1CCN(c2oc(/C=C/c3ccc(F)cc3)nc2C#N)CC1 | – | inactive: -6.21%
Cc1cc(C)c(NC(=O)NC2CCCCC2)c(C)c1 | – | inactive: -1.52%
COc1cc(NC(=O)c2nn(-c3ccc(C)cc3)c(=O)c3c2c2ccccc2n3C)cc(OC)c1OC | – | inactive: 1.45%
CC(=O)Nc1cccc(NC(=O)c2ccc(C)c([N+](=O)[O-])c2)c1 | inconclusive: 37.9 µM [inhibitor, single point] | –
O=C(Nc1ccccn1)C1CCN(S(=O)(=O)c2cccc3nonc23)CC1 | – | inactive: 1.88%
Cc1cc(C)c(S(=O)(=O)N2CCCCC2)c(C)c1N(C)S(=O)(=O)c1ccc(Cl)cc1 | – | inactive: 0.804%
CCCS(=O)(=O)n1nc(-c2ccc(OC)cc2)cc1N | inconclusive: 23.9 µM [inhibitor, partial curve, poor fit] | –
Cc1[nH]c2ccccc2c1C(c1ccccc1)c1cccs1 (stereo not given) | – | inactive: -7.8%
Cc1ccccc1NC(=O)Cn1c(=O)n(CCc2ccccc2)c(=O)c2sc3ccccc3c21 | – | inactive: 0.418%
Cc1ccc(-c2ccc(/C=N/n3cnnc3)o2)cc1 | inconclusive: 37.9 µM [inhibitor, partial curve, poor fit] | –
COc1ccccc1C(=O)Nc1ccc(NC(=O)C2CCCCC2)nc1 | inconclusive: 21.3 µM [inhibitor, partial curve, poor fit] | –

SMILES | Potency | activity change, negative = inhibition
CCc1cc(C(=O)NNC(=S)Nc2ccccc2C)cs1 | active: 6.75 µM | –
Clc1ccc(OCc2nc3ccccc3[nH]2)cc1 | active: 3.38 µM | –
CCOC(=O)c1ccc(NC(=O)c2cccc3c2C(=O)N(CC2CCCO2)C3)cc1 (stereo not given) | inconclusive: 19 µM [inhibitor, partial curve] | –
Cc1ccc(C(=O)c2ccc(CC(=O)O)n2C)cc1 | inconclusive: 23.9 µM [inhibitor, partial curve] | –
C/C(=N\NC(=O)c1ccccc1N)c1ccc(NC(=O)Cc2ccccc2)cc1 | inconclusive: 21.3 µM [inhibitor, partial curve, poor fit] | –
CN(C(=O)CC1C(=O)NCCN1Cc1ccc(F)cc1Cl)C1CCCCC1 (stereo not given) | inconclusive: 1.69 µM [inhibitor, full curve, poor fit] | –
COc1ccc(CNC(=O)C2CCCN2S(=O)(=O)c2ccc(F)cc2)cc1 (stereo not given) | – | inactive: 1.49%
Cc1ccc(NC(=O)CSc2c3c(nc4ccccc24)CCCC3)cc1F | – | inactive: -18.3%
CC(C)C1C(=O)Nc2ccc(S(=O)(=O)NCc3ccc(Cl)cc3)cc21 (stereo not given) | – | inactive: -5.81%
Cc1ccc(CCNC(=O)c2cc(Nc3ccc(C)c(C)c3)nc3ccccc23)cc1 | inconclusive: 8.49 µM [inhibitor, partial curve] | –
CN(Cc1ccccc1)c1ccc(-c2nc(-c3ccco3)no2)cc1[N+](=O)[O-] | inconclusive: 15.1 µM [inhibitor, partial curve] | –
Cc1cc(F)ccc1-n1nnc(C(N)=O)c1C | – | inactive: 1%
O=C(c1ccccc1Cl)N(Cc1ccco1)Cc1ccco1 | – | inactive: -0.41%
Cc1ccc(C(=O)Nc2ccccc2C(=O)O)cc1S(=O)(=O)NC1CCCCC1 | inconclusive: 33.8 µM [inhibitor, single point] | –
CCOc1ccccc1N1CCN(C(=O)c2cc(S(=O)(=O)N(C)C)ccc2N2CCCC2)CC1 | – | inactive: 3.71%
O=C(COc1ccccc1)Nc1ccc2[nH]ncc2c1 | inconclusive: 23.9 µM [inhibitor, single point] | –
Cc1cccc(C(=O)Nc2cccc(C(=O)OCc3cc(=O)n4nc(C(C)C)sc4n3)c2)c1 | – | inactive: -19.9%
O=C(CCN1C(=O)/C(=C/c2ccccc2Cl)SC1=S)N1CCOCC1 | inconclusive: 6.75 µM [inhibitor, partial curve, poor fit] | –
Cc1ccc(CN/C=C/C(=O)c2ccc(Br)cc2)cc1 | active: 16.9 µM | –
COc1cccc(C(=O)N/N=C/c2ccc(OC)c(COc3ccccc3C(N)=O)c2)c1 | inconclusive: 23.9 µM [inhibitor, partial curve, poor fit] | –
O=C(N/N=C/C1CC2CCC1C2)c1c[nH]c2ccccc12 (stereo not given) | active: 4.78 µM | –
Cc1cc(Sc2ccc(Cl)cc2)nc2ccccc12 | inconclusive: 37.9 µM [inhibitor, partial curve, poor fit] | –
O=C(Nc1cc(=O)[nH]c2nc(-c3ccc(Cl)cc3)nn12)c1ccccc1 | inconclusive: 30.1 µM [inhibitor, single point] | –
Brc1ccc(C=Nc2ccc(Nc3ccccc3)cc2)s1 | active: 23.9 µM | –
O=C(CSc1ccccc1)NCc1ccc2c(c1)CCN2C(=O)c1ccc(Cl)cc1 | inconclusive: 23.9 µM [inhibitor, partial curve, poor fit] | –

SMILES | Potency | activity change, negative = inhibition
Nc1c([N+](=O)[O-])cnnc1-c1ccccc1 | – | inactive: 1.17%
CCNS(=O)(=O)c1ccc(NC(=O)Nc2cccc(OC)c2)cc1 | inconclusive: 26.9 µM [inhibitor, partial curve] | –
Cc1ccc(NC(=O)c2ccc(NS(=O)(=O)c3cccc4cccnc34)cc2)cc1 | active: 16.9 µM | –
CCN(CC)CCNC(=O)C(=O)NCC(c1cccnc1)N1CCN(c2ccccc2)CC1 (stereo not given) | inconclusive: 30.1 µM [inhibitor, partial curve, poor fit] | –
O=C(/C=C/c1ccc([N+](=O)[O-])cc1)NCCc1ccccc1 | – | inactive: 3.86%
N#Cc1cc(NC(=O)c2ccc(F)cc2)c(=O)n2c1[nH]c1ccccc12 | inconclusive: 19 µM [inhibitor, partial curve, poor fit] | –
COc1ccc(CCNC(=O)CCCCn2c(=O)c3ccccc3n(CC(=O)Nc3ccc(C)cc3C)c2=O)cc1OC | – | inactive: 0.405%
CCN(CCNC(=O)CS(=O)(=O)Cc1nc(-c2cccc(OC)c2)oc1C)c1ccccc1 | – | inactive: -0.508%
Cc1cc(C(=O)CN2C(=O)NC3(CCCC3)C2=O)c(C)n1-c1ccc2c(c1)OCO2 | inconclusive: 16.9 µM [inhibitor, partial curve, poor fit] | –
S=C(Nc1ccc(Cl)cc1Cl)N1CCCCC1 | inconclusive: 19 µM [inhibitor, single point] | –
CCc1cc(=O)oc2cc(OCC(=O)N3CCC[C@H]3C(=O)O)ccc12 | – | inactive: 1.34%
CCCN1C(=O)c2[nH]nc(-c3ccccc3O)c2C1c1ccc(OCc2ccccc2)c(OCC)c1 (stereo not given) | – | inactive: 0.318%
CC(=O)c1c(CC(=O)O)[nH]n(-c2nc3ccccc3s2)c1=O | active: 12 µM | –
Cc1ccc(C(=O)NCCCN2CCOCC2)c(Cl)c1 | inconclusive: 21.3 µM [inhibitor, partial curve, poor fit] | –
COc1ccc(NC(=O)c2ccc3c(c2)OCO3)cc1[N+](=O)[O-] | inconclusive: 4.78 µM [inhibitor, full curve] | –
CCc1ccc(OCC(=O)NC(C)C)cc1 | – | inactive: -12.7%
COC(=O)C(CC(=O)c1ccc(Br)cc1)n1ccnc1 (stereo not given) | inconclusive: 37.9 µM [inhibitor, partial curve, poor fit] | –
O=C(N/N=C/c1ccc2c(c1)OCO2)C(O)c1ccccc1 (stereo not given) | inconclusive: 30.1 µM [inhibitor, partial curve] | –
O=C(Nc1ccc(N2CCCC2)cc1)c1cc2ccccc2o1 | active: 3.01 µM | –
CCN(CC(=O)Nc1ccc(OC)cc1)C(=O)c1ccc(Cl)c(S(=O)(=O)N2CCCC2)c1 | inconclusive: 21.3 µM [inhibitor, single point] | –
CSc1nsc(SCC(=O)Nc2ccc(C(C)=O)cc2)n1 | active: 21.3 µM | –
Cc1csc(NC(=O)c2cc3c(s2)CCCCC3)n1 | active: 0.135 µM | –
Cc1cccc(NC(=O)N2CCCc3ccccc32)c1C | – | inactive: -1.03%
CCN(C(=O)c1cc2cc3ccc(C)cc3nc2o1)c1ccc(OC)cc1 | inconclusive: 21.3 µM [inhibitor, single point] | –
Cc1cc(C)c2nc(N3CCCC(C(=O)NCc4cccc(Br)c4)C3)sc2c1 (stereo not given) | inconclusive: 9.53 µM [inhibitor, partial curve, poor fit] | –
